According to article PMC4336329 (PLoS ONE, 2015):
In all, about 310,000 compounds went through this assay and about 14,000 (4.5%) showed an effect of 50% or more. Effects have a minus sign here. Some of the results follow.
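Also: peak tail current of the secondary pulse compared with the same well before compound.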

Each compound was assayed against human ether-à-go-go-related gene (hERG) potassium channel (human, UniProt Q12809) (assay: primary screen, population patch clamp on CHO cells stably expressing hERG).
Chain of human ether-à-go-go-related gene (hERG) potassium channel (Q12809 whole entry, looked up): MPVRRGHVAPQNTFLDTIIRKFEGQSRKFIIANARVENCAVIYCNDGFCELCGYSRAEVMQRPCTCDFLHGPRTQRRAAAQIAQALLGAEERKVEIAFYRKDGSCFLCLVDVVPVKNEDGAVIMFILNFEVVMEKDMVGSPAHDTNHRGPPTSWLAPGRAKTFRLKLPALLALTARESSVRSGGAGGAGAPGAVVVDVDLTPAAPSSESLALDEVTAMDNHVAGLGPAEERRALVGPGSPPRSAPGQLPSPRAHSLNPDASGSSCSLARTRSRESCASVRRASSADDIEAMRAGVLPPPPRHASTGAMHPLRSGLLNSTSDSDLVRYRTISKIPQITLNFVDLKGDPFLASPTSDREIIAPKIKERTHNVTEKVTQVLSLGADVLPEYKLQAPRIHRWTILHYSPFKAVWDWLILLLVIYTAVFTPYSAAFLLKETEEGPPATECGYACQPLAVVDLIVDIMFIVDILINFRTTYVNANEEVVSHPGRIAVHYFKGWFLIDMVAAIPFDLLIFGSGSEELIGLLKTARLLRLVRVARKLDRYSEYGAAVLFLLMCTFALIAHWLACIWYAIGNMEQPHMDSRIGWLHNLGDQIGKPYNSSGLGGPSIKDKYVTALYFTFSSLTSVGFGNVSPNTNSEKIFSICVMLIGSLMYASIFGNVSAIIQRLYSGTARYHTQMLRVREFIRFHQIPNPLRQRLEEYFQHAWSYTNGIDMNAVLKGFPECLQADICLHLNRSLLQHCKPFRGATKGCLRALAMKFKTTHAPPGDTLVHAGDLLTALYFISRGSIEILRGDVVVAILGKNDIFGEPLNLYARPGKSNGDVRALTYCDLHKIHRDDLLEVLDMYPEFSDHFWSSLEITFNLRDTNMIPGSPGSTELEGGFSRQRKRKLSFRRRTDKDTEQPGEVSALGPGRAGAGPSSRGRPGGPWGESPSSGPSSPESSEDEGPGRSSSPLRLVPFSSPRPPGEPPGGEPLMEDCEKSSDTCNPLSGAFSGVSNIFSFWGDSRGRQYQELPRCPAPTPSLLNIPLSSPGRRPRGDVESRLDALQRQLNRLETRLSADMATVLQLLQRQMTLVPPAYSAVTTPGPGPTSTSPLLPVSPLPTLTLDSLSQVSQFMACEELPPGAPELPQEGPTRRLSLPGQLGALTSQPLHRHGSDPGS
With Cc1ccc(C2CC2C(=O)NNC(=S)Nc2ccc(Cl)cc2)cc1 (centres unmarked) the “hERG current change (%, negative = inhibition) at 10uM” value was -2.87%. For CCOc1ccccc1/C=C/C(=O)c1ccc(Cl)cc1, the “hERG current change (%, negative = inhibition) at 10uM” value was 4.42%. C=CCN1CC(c2nc3ccccc3n2CCOc2ccccc2)CC1=O (centres unmarked) was tested, and the “hERG current change (%, negative = inhibition) at 10uM” value was -16.5%. In the case of COc1ccc(C(NC(=O)/C=C/c2ccco2)c2ccc(OC)cc2)cc1, the “hERG current change (%, negative = inhibition) at 10uM” value is reported as -13.3%. Cc1ccc(CC2CC(=O)N(CCc3ccccc3)C2=O)cc1 (centres unmarked) was tested, and the “hERG current change (%, negative = inhibition) at 10uM” value was -6%. For C[C@@H](C(=O)N1CCN(Cc2ccc3c(c2)OCO3)CC1)n1nnc2ccccc2c1=O, the “hERG current change (%, negative = inhibition) at 10uM” value was -21.9%. For Cc1ccc(N2CC(C(=O)Nc3ccc4c(c3)OCCO4)CC2=O)cc1C (centres unmarked), the “hERG current change (%, negative = inhibition) at 10uM” value was 3.69%. With O=C1OC(c2ccc(Cl)cc2)/C(=C(/O)c2ccccc2)C1=O (centres unmarked) the “hERG current change (%, negative = inhibition) at 10uM” value was -2.7%. For O=C(O)c1cccc(NS(=O)(=O)c2cc(S(=O)(=O)c3ccc(Cl)cc3)ccc2Cl)c1, the “hERG current change (%, negative = inhibition) at 10uM” value was -1.34%. For O=C(Cn1cnc2ccccc2c1=O)NNC(=O)c1ccccc1, the “hERG current change (%, negative = inhibition) at 10uM” value was 18.2%. With CC(=O)CC(C)(C)S(=O)(=O)c1ccc(NC(C)=O)cc1 the “hERG current change (%, negative = inhibition) at 10uM” value was 15.1%. COc1ccc(/C=N/NC(=O)c2ccccc2)cc1CN1CCN(c2ccc(F)cc2)CC1 was tested, and the “hERG current change (%, negative = inhibition) at 10uM” value was -74.5%. With COC(=O)c1cccc(-c2ccc(/C=N/N3C(=O)C4C5C=CC(C6CC56)C4C3=O)o2)c1 (centres unmarked) the “hERG current change (%, negative = inhibition) at 10uM” value was -8.32%. With O=C(COc1ccc(OCc2ccccc2)cc1)NC1CCOC1=O (centres unmarked) the “hERG current change (%, negative = inhibition) at 10uM” value was -0.106%. COc1ccc(CNC(=O)C2CCN(S(=O)(=O)N3CCOCC3)CC2)cc1 was tested, and the “hERG current change (%, negative = inhibition) at 10uM” value was -2.97%. In the case of O=C1CC2(CCN(C(=O)C3CC(=O)N(c4ccccc4)C3)CC2)Oc2ccccc21 (centres unmarked), the “hERG current change (%, negative = inhibition) at 10uM” value is reported as -77.4%. With O=C(CSc1nnc(CNC(=O)c2c(F)cccc2F)o1)Nc1ccc2c(c1)OCCO2 the “hERG current change (%, negative = inhibition) at 10uM” value was 7.93%. With CCN(CC(=O)Nc1cccc(C(C)=O)c1)S(=O)(=O)c1ccc(OC)cc1 the “hERG current change (%, negative = inhibition) at 10uM” value was -7.44%. CCCSc1nsc(SCCC)c1C#N was tested, and the “hERG current change (%, negative = inhibition) at 10uM” value was 11.9%. With N#C/C(C(=O)NCc1ccco1)=C1/SC(Cc2ccc(F)cc2)C(=O)N1c1ccccc1 (centres unmarked) the “hERG current change (%, negative = inhibition) at 10uM” value was 1.82%. For Cc1ccc(SCc2c(C(=O)N/N=C/c3ccccc3)nnn2-c2nonc2N)cc1, the “hERG current change (%, negative = inhibition) at 10uM” value was -1.47%. For CCOc1ccc(S(=O)(=O)N(C)c2ccc(OCC(=O)N3CCOCC3)cc2)cc1, the “hERG current change (%, negative = inhibition) at 10uM” value was -19.2%. In the case of O=C(N/N=C/c1ccc(Cl)c([N+](=O)[O-])c1)c1cnccn1, the “hERG current change (%, negative = inhibition) at 10uM” value is reported as -41%.
